± gives the standard deviation. Over roughly 6,600 sequences, “pre-steady-state target cleavage rate” has its median near 0.07; the highest 2% begin near 0.72. The entries are a selection whose mix differs from that of the whole data set.
These sequences were tested on MIWI (PIWIL1) piRISC loaded with Kctd7 piRNA (30 nt) (assay: pre-steady-state target cleavage rate (min^-1); MIWI and MILI are mouse PIWI proteins and EfPiwi is from a freshwater sponge; tags in brackets are library labels; higher = faster piRNA-guided slicing of the target). Details: guide: Kctd7 piRNA 5'p-UGUUAAUCUCUCAGAGAAGGUGACAGUGAU; auxiliary factor: 500 nM mouse GTSF1.
Outline: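 The method was Cleave-'n-Seq, in which uncleaved targets from a transcribed, DNA-blocked target RNA library were sequenced after exposure to active affinity-purified piRISC carrying one synthetic guide, with or without GTSF1 partner protein. Reactions contained 0.1 nM library, 1 nM piRISC and, where present, 500 nM GTSF1 in HEPES–potassium acetate buffer at 33 °C for 0–8 or 0–960 min. Reads were normalised to depth and to weakly complementary targets, three trials were pooled, and k3 was capped at 0.0001 min^-1. The pre-steady-state cleavage rate came from a burst-and-steady-state fit.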
UAGACUGUCACCUUCUCUGAGAGAUUCACA was tested, and the “pre-steady-state target cleavage rate” value was 0.429 ± 0.075.
With UUCACUGUCACCUACUCUGAGUGAUUAACA the “pre-steady-state target cleavage rate” value was 0.0268 ± 0.0038.
For AUCACUGUCUCCUUCUCUGAGAGAUUUACA, the “pre-steady-state target cleavage rate” value was 0.295 ± 0.04.
In the case of UAGUGACAGUCCUUCUCAGAGAGAUUAACA, the “pre-steady-state target cleavage rate” value is reported as 0.011 ± 0.004.
With UAGACUCUCACCUUCUCUGAGAGAUUAUGA the “pre-steady-state target cleavage rate” value was 0.0895 ± 0.013.
For UUCACUGUCACCUACUCUGAGAGAUUAUGA, the “pre-steady-state target cleavage rate” value was 0.0962 ± 0.019.
For UAGUGACACACCUUGUCUGAGAGAUUAAGA, the “pre-steady-state target cleavage rate” value was 0.00447 ± 0.0038.
For UAGUCUGUCACCUUCUGUGAGUGAUUAACA, the “pre-steady-state target cleavage rate” value was 0.0196 ± 0.0049.
UACACUGUGUCCUUCUCUGAGAGAUUAACA was tested, and the “pre-steady-state target cleavage rate” value was 0.423 ± 0.035.
With UAGACUGUCACCUUCUGAGAGAGAUUAACA the “pre-steady-state target cleavage rate” value was 0.0337 ± 0.0047.
For UAGUGUGUCACCUACUCUGAGUGAUUAACA, the “pre-steady-state target cleavage rate” value was 0.017 ± 0.0065.
With UUCACUGUCACCUUCUCUGAGACAUAAACA the “pre-steady-state target cleavage rate” value was 0.0192 ± 0.0056.
With UAGUGACAGUCCUUCUCUGAGACAUUAAGA the “pre-steady-state target cleavage rate” value was under 0.0001.
For UACACUGUGACCUUCUCUGAGAGAUUAACA, the “pre-steady-state target cleavage rate” value was 0.464 ± 0.037.
With UAGUCUGUUACCUUCUCUGAGAGAUUAACA the “pre-steady-state target cleavage rate” value was 0.541 ± 0.03.
For UUCUCUGUCACCUUCUGUGAGAGAUUAACA, the “pre-steady-state target cleavage rate” value was 0.414 ± 0.02.
UAGUGAGUCACCUUCUCUGAGAGAUUACCA was tested, and the “pre-steady-state target cleavage rate” value was 0.258 ± 0.039.
With UAGUCGUCACCUUCUCUGAGAGAUUAACA the “pre-steady-state target cleavage rate” value was 0.7 ± 0.049.
AUCACUGUCACCUUCUCUGAGAGUUUUACA was tested, and the “pre-steady-state target cleavage rate” value was 0.408 ± 0.093.
In the case of UAGACUGUCACCUUCUCUCAGAGAUUAUCA, the “pre-steady-state target cleavage rate” value is reported as 0.0732 ± 0.011.
In the case of UACACUGUCACGUUCACUGAGAGAUUAACA, the “pre-steady-state target cleavage rate” value is reported as 0.365 ± 0.023.
In the case of UAGUGACUCACCUCUCUCUGAGAGAUUAACA, the “pre-steady-state target cleavage rate” value is reported as 0.135 ± 0.018.
AUCACUGUCACGAACUCUGAGAGAUUAACA was tested, and the “pre-steady-state target cleavage rate” value was 0.164 ± 0.02.
With AUCACUGUCAGCUUCUCUGACAGAUUAACA the “pre-steady-state target cleavage rate” value was 0.0278 ± 0.0093.
With “UAGUGACAGUGCUUCUCUGAGAGUAAUUGA [g8:g19:cont:t1A]” the “pre-steady-state target cleavage rate” value was under 0.0001.
For UAGACUGUCACCUACUCUGAGACAUUAACA, the “pre-steady-state target cleavage rate” value was 0.0108 ± 0.003.
In the case of UAGUGACAGAGCCUUCUCUGAGAGAUUAACA, the “pre-steady-state target cleavage rate” value is reported as 0.154 ± 0.013.
With UUCACUGUCACCUUCUCUGAUGAGAUUAACA the “pre-steady-state target cleavage rate” value was 0.0181 ± 0.008.
With UUCACUGUCACCUUCUCAGUGAGAUUAACA the “pre-steady-state target cleavage rate” value was 0.0204 ± 0.0044.
AUCACUGACACCUUCUCUGAGAGAUUAACA was tested, and the “pre-steady-state target cleavage rate” value was 0.602 ± 0.028.
With UAGUGUCUCACCUUCUCAGAGAGAUUAACA the “pre-steady-state target cleavage rate” value was 0.235 ± 0.021.
For UAGUGAGUCACCUUCUCUGUCAGAUUAACA, the “pre-steady-state target cleavage rate” value was 0.0096 ± 0.0034.
With UAGACUCUCACCAUCUCUGAGAGAUUAACA the “pre-steady-state target cleavage rate” value was 0.343 ± 0.023.
UAGUCUGUCACCUACUCUGAGAGAUUAUCA was tested, and the “pre-steady-state target cleavage rate” value was 0.253 ± 0.038.
With AUCACACACACCUUCUCUGAGAGAUAUUGA the “pre-steady-state target cleavage rate” value was 0.0367 ± 0.014.
With UUCACUGUCUCCUUCUCUGAGUGAUUAACA the “pre-steady-state target cleavage rate” value was 0.0335 ± 0.0051.
For UAGUGACAGACCUUCUCUGAGAGAAAAACA, the “pre-steady-state target cleavage rate” value was 0.0119 ± 0.0046.
For UACACUGUCACCUUCUCUGAGUGAUUAAGA, the “pre-steady-state target cleavage rate” value was 0.00609 ± 0.0048.
In the case of UAGUCUGUCACCUUCUCUGAGAGAUUAAAA, the “pre-steady-state target cleavage rate” value is reported as 0.113 ± 0.021.
For AUCACUGUCACCUUCUCUGAGAGAAAAACA, the “pre-steady-state target cleavage rate” value was 0.166 ± 0.031.
With UAGUGAGUCACCUUCUCUGAGAGAUUUAGA the “pre-steady-state target cleavage rate” value was 0.0476 ± 0.015.
In the case of UUCACUGUGACCUUCUCUCAGAGAUUAACA, the “pre-steady-state target cleavage rate” value is reported as 0.0886 ± 0.0069.
In the case of UUCACUCUCACCUUCUCUGUGAGAUUAACA, the “pre-steady-state target cleavage rate” value is reported as 0.2 ± 0.0098.
With AUGACUGUCACCUUCUCUCAGAGAUUAACA the “pre-steady-state target cleavage rate” value was 0.102 ± 0.0046.
UACACUGUCACCAACUCUGAGAGAUUAAGA was tested, and the “pre-steady-state target cleavage rate” value was 0.0589 ± 0.014.
With AUCACUGUCACGUUCUCUGAGAGAUUUACA the “pre-steady-state target cleavage rate” value was 0.247 ± 0.032.
With UACACUGACACCUUCUCUGAGACAUUAACA the “pre-steady-state target cleavage rate” value was 0.197 ± 0.03.
For UUCACUCUCACCUUCUCUCAGAGAUUAACA, the “pre-steady-state target cleavage rate” value was 0.104 ± 0.0088.
In the case of UAGUGAGUCACCUUCUCUGAGAGUUUUUGA, the “pre-steady-state target cleavage rate” value is reported as 0.0751 ± 0.018.
In the case of AUCACUGUCUCCUUCUCUGUGAGAUUAACA, the “pre-steady-state target cleavage rate” value is reported as 0.25 ± 0.014.
For UAGUGAGUCACCUUCAGUGAGAGAUUAACA, the “pre-steady-state target cleavage rate” value was 0.121 ± 0.016.
With UAGUGAGUCUCCUUCACUGAGAGAUUAACA the “pre-steady-state target cleavage rate” value was 0.369 ± 0.033.
UAGUGACUCACGUUCUCUGAGAGAUUAAGA was tested, and the “pre-steady-state target cleavage rate” value was 0.0313 ± 0.0078.
For AUCACUGUGACCUUCUCUGAGAGAUUAACA, the “pre-steady-state target cleavage rate” value was 0.664 ± 0.041.
UAGUGAGUCCCUUCUCUGAGAGAUUAACA was tested, and the “pre-steady-state target cleavage rate” value was 0.512 ± 0.044.
With UAGUGACAGAGCUUCUCUGACAGAUUAACA the “pre-steady-state target cleavage rate” value was 0.00436 ± 0.0035.
“UUCACUGUCACCUUCUCUGAGAGAUUAACG [g2:g29:cont:t1G]” was tested, and the “pre-steady-state target cleavage rate” value was 0.578 ± 0.029.
With UAGUCUGUCACGUUCUCUGAGACAUUAACA the “pre-steady-state target cleavage rate” value was 0.00922 ± 0.0021.
UUCACUGUGACCUUCUCUGUGAGAUUAACA was tested, and the “pre-steady-state target cleavage rate” value was 0.198 ± 0.011.
With UACACUGUCACCUUCUCUGUGACAUUAACA the “pre-steady-state target cleavage rate” value was 0.039 ± 0.0066.
For UACACUGACACCUUCUCUGAGAGAUUAACA, the “pre-steady-state target cleavage rate” value was 0.543 ± 0.036.
With AUCACUGACACCUUCUCUCAGAGAUUAACA the “pre-steady-state target cleavage rate” value was 0.0989 ± 0.0085.
UAGUGACAGUCCUUCUCUGAGAGAUUAAA was tested, and the “pre-steady-state target cleavage rate” value was 0.027 ± 0.0049.
With UAGUGACAGUGCUUCUCUGAGAGAUUAGCA the “pre-steady-state target cleavage rate” value was 0.00775 ± 0.0023.
UAGACUCACACCUUCUCUGAGAGAUAUUGA was tested, and the “pre-steady-state target cleavage rate” value was 0.0233 ± 0.0066.
In the case of UAGUGUCUCACCUUCUCUGACAGAUUAACA, the “pre-steady-state target cleavage rate” value is reported as 0.384 ± 0.029.
With UUCACUGUGUCCUUCUCUGAGAGAUAUUGA the “pre-steady-state target cleavage rate” value was 0.011 ± 0.0039.
For AUCACUGUCACCUUCUCUGAGAGAUAUAGA, the “pre-steady-state target cleavage rate” value was 0.0812 ± 0.022.
With AUCACUGUCACCUUCAGAGAGAGAUUAACA the “pre-steady-state target cleavage rate” value was 0.103 ± 0.036.
For UAGUGACAGUCCUCUCUGAGAGAUUAACA, the “pre-steady-state target cleavage rate” value was 0.00355 ± 0.0021.
In the case of UACACUGUCACCUUCGUCUGAGAGAUUAACA, the “pre-steady-state target cleavage rate” value is reported as 0.199 ± 0.044.
In the case of UAGACUGUCACCUUCUCUGAGAGUUUAACA, the “pre-steady-state target cleavage rate” value is reported as 0.237 ± 0.03.
